Results published in PubChem BioAssay AID445 (National Center for Advancing Translational Sciences (NCATS), 2006).
About 40 (0.04%) of roughly 110,000 compounds were called active. Inconclusive results, whose numbers are uncertain, are shown with a selection of clear calls. Calls come from the whole dose curve; as a rule, active = well fitted curve in the direction sought with a large enough effect in the signal ratio (not every such curve was filed as active); inconclusive = small, poorly fitted or top-dose-only effect, or a change in a side signal; inactive = flat fitted curve, though single readings scatter; the % refers to the signal ratio. Potencies of inconclusive entries are doubtful fits and often do not repeat.

assay: IkB Signaling; settings: ABC-DLBCL IkBa-CBG/CBR dual luciferase ratio (green luciferase fused to IkBa over red control in OCI-Ly3 lymphoma cells), 4 h; IkBa stabilization activation: at 57.1 µM (top of the series), scaled: untreated 0%, proteasome inhibitor 100% unless noted;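 for IkBa stabilization activation: 0% = basal untreated cells and 100% = reference inhibitor full response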
Outline: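 In this assay, an IκBα–CBG68 fusion accumulates when IKK-driven degradation is blocked; native CBR normalizes for cell number. OCI-Ly3 cells were treated 4 h with compound and doxycycline, then green and red light read after Chroma-Glo addition.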
Potency is the fitted concentration of half-maximal effect.

Compound | IkBa stabilization activation | Potency
Cc1cccc(N2CCN(C(=O)CSCc3ccc(F)cc3)CC2)c1C | inconclusive: -0.8% [signal inhibitor] | 
CCCCN(C)C(=O)C1CCCN(c2ncnc3onc(-c4ccc(F)cc4)c23)C1 (stereo not drawn) | inconclusive: 1.63% [signal inhibitor] | 
CCN(CC)S(=O)(=O)c1ccc2c(c1)c(=O)c(C(=O)NCc1ccccc1)cn2C | inactive | 
O=C(NCc1ccccc1)c1ccc(NC(=O)c2nsc3ccccc23)cc1 |  | inconclusive: 3.16 µM [signal inhibitor, partial curve]
COc1ccc(CNC(=O)CCC(=O)N2CC3CCCN3c3ccccc32)cc1 (stereo not drawn) | inconclusive: 0.0246% [signal inhibitor] | 
COc1ccccc1CNC(=O)c1ccc(CS(=O)(=O)c2ccccc2C)o1 | inconclusive: 0.163% [signal inhibitor] | 
CCCOC(=O)c1ccc(Oc2c(-c3ccc(O)cc3O)n[nH]c2C)cc1 | inconclusive: 3.67% [signal inhibitor] | 
COc1ccc(-c2nc3cnc(N4CCOCC4)nc3n(C[C@H]3CCCO3)c2=O)cc1 | inactive: -0.0912% [at 11.4 µM, scaled: untreated 0%, proteasome inhibitor 100%] | 
CC(=O)N1CCCc2cc(S(=O)(=O)N3CCC(C(=O)NCc4ccc(N(C)C)cc4)CC3)ccc21 | inconclusive: 7.35% [signal inhibitor] | 
Cc1nc2nc(SCC(=O)NCCc3ccccc3)nn2c(C)c1Cc1c(F)cccc1Cl | inconclusive: 0.643% [signal inhibitor] | 
O=C(CSc1nc2ncc(Br)cc2[nH]1)Nc1ccc2c(c1)OCO2 | inconclusive: 8.09% [signal inhibitor] | 
CC1(C)CC(=O)C2=C(C1)OC(N)=C(C#N)C2C1CC=CCC1 (stereo not drawn) | inconclusive: 2.37% [signal inhibitor] | 
O=C(OCc1nc2ccccc2s1)C1CCN(S(=O)(=O)c2cccs2)CC1 | inactive | 
N#CCCn1c(=O)c(-c2ccccc2)nc2cnc(N3CCOCC3)nc21 | inactive: -2.12% [at 11.4 µM, scaled: untreated 0%, proteasome inhibitor 100%] | 
Cc1ccc(C(C)C)c(OCC(=O)N2CCC(c3nc4ccccc4o3)CC2)c1 | inconclusive: 3.4% [signal inhibitor] | 
Nc1c(C(=O)c2ccc(Br)s2)oc2ccccc12 | inconclusive: 0.374% [signal activator] | 
CCn1c(SCCOc2ccccc2F)nc2ccccc21 | inconclusive: 18.7% [signal inhibitor] | 
CCOc1ccccc1C(=O)Nc1ccc2c(c1)N(C)C(=O)c1ccccc1S2 | inconclusive: -0.693% [signal inhibitor] | 
